Results reported in the RNAGym collection of RNA variant scans (doi:10.1093/nar/gkz1192).
The source gives no read counts; variants with many changes may rest on few reads.

B1: CPEB3 Ribozyme (parent)
chain: UAACAGGGGGCCACAGCAGAAGCGUUCACGUCGCAGCCCCUGUCAGAUUCUGGUGAAUCUGCGAAUUCUGCUGUAUAUCUC

Variants of: B1
Test: self-cleavage, relative activity (ratio to wild type); higher = more cleavage; in vitro, sequencing
Procedure, shortened: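 For each CPEB3 ribozyme variant, relative activity is its cleaved/total read fraction divided by the unmutated ribozyme's. Barcoded error-prone PCR libraries were transcribed by T7 RNA polymerase (5 hours, 37°C) and held in DNase I for 15 min before an EDTA stop, with cleavage occurring throughout. Template-switching reverse transcription and Illumina sequencing were used to read the RNAs. A 5-read minimum applied, and results are the mean of three batches.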

Row | Variant | self-cleavage
1 | A3G A5U A13U U26A C29U G30A C39U | 0.2
2 | A3G A5U A18G A35U U41A G73A | 0.14
3 | A3G A5U A20G U26C U31C U49C U74C | 0
4 | A3G A5U A28C A47U A75U | 0.57
5 | A3G A5U A57G | 0.92
6 | A3G A5U C11G A18G A28G | 0.14
7 | A3G A5U G22U A28C U31C A57G U78A | 0
8 | A3G A5U U26C U43C G70A | 0.2
9 | A3G A5U U26C U43C U51A U66C | 0.42
10 | A3G A5U U31G U41C A56U A65G | 0.29
11 | A3G A13C U49C U66A U74A A75G | 0.18
12 | A3G A13C U80A | 1.09
13 | A3G A13G A15U A28G U41A A64U | 0.06
14 | A3G A13G A18U G30U U41A | 0.51
15 | A3G A13G A18U G33A C50A A65G | 0.06
16 | A3G A13G A21C U48C U80A | 0.13
17 | A3G A13G A28G A47G C68A U80A | 0.25
18 | A3G A13G A45G | 0.93
19 | A3G A13G A47G U49C U60A | 0.41
20 | A3G A13G C23U G42A G63A U67C U80C | 0.07
21 | A3G A13G C38U U43C U54C U80C | 0.18
22 | A3G A13G C40U | 0.68
23 | A3G A13G G33U U48C A77G | 0.12
24 | A3G A13G G33U U58G | 0.1

Row | Variant | self-cleavage
25 | A3G A13G G55U U60C | 0.13
26 | A3G A13G G70A U78C | 0.22
27 | A3G A13G U25A A56U A64G U66C U72A | 0.06
28 | A3G A13G U25A U54C | 0.1
29 | A3G A13G U26C A45U A57C | 0.47
30 | A3G A13G U26C U54A | 0.62
31 | A3G A13G U31A | 0.74
32 | A3G A13G U41A | 0.59
33 | A3G A13G U41A G63A | 0.24
34 | A3G A13G U41A U54A C68G G73U A77U | 0.18
35 | A3G A13G U49C | 0.2
36 | A3G A13G U49C U60A U72A | 0.35
37 | A3G A13U A18G A21G U31A U43C | 0.1
38 | A3G A13U A35U U69C U80C | 0.31
39 | A3G A13U A45G A75U | 1.16
40 | A3G A13U A56G U69C | 0.35
41 | A3G A13U C29U A45G | 0.56
42 | A3G A13U U25A | 0.48
43 | A3G A13U U26C A28G A35G | 1.04
44 | A3G A13U U31C U41C A64G U69C U80C | 0.24
45 | A3G A13U U54C A56U A64G | 0.55
46 | A3G A13U U54C C71U U72C | 0.92
47 | A3G A13U U58C U72C | 0.79
48 | A3G A13U U60C A65G U67C | 0.55

Row | Variant | self-cleavage
49 | A3G A15C A35G U49A G55A A57U | 0.8
50 | A3G A15C U72A U76C | 0.74
51 | A3G A15G A21G A65G | 0.32
52 | A3G A15G A28U U60A U72C | 0.32
53 | A3G A15G C29U A47G U78A | 0.14
54 | A3G A15G C39G A47U U49A U67C U80C | 0.09
55 | A3G A15G G46C | 0.2
56 | A3G A15G U25C A28G A56U | 0
57 | A3G A15G U25C C29A U51A U78C | 0.59
58 | A3G A15G U26A A45C U66C U72A | 0.07
59 | A3G A15G U26C U60C | 0.19
60 | A3G A15G U49C U80C | 0.3
61 | A3G A15G U78C | 1.05
62 | A3G A15G U80A | 0.61
63 | A3G A15U A18C C23U U49C G61U | 0.13
64 | A3G A15U A18U C29G G61A U76C | 0.11
65 | A3G A15U A20G A64G U69A A77G | 0.26
66 | A3G A15U A20G U51A A57G G70A | 0.07
67 | A3G A15U A21G U25C A56G | 0.36
68 | A3G A15U A28G | 0.29
69 | A3G A15U C29U A64U | 0.07
70 | A3G A15U U26C U41A U76A | 0.15
71 | A3G A15U U31A U69C | 0.21
72 | A3G A18C A21G | 0.19

Row | Variant | self-cleavage
73 | A3G A18C U25C A56G U80C | 0.06
74 | A3G A18C U60C A64U | 0.17
75 | A3G A18G A20G | 0.71
76 | A3G A18G A20U U76C | 0.54
77 | A3G A18G A21G A35G G52U U72C U80C | 1.25
78 | A3G A18G A28G U76C | 0.51
79 | A3G A18G A57U | 0.72
80 | A3G A18G C40A U41C G73U | 0.64
81 | A3G A18G G30A G42A A45U C71A A77G | 0.07
82 | A3G A18G G33A U48C U74A | 0.3
83 | A3G A18G G36A C39A U43A | 0.42
84 | A3G A18G U25A A64G U76C | 0.15
85 | A3G A18G U26A U41C A57G | 0.29
86 | A3G A18G U26C | 0.56
87 | A3G A18G U31A C62U A65G U67A U69C | 0.23
88 | A3G A18G U49C | 0.46
89 | A3G A18G U49C U69C | 0.69
90 | A3G A18G U54A A57G U66A | 0.31
91 | A3G A18G U54C | 0.77
92 | A3G A18G U80A | 0.96
93 | A3G A18U A20G A28G A57G | 0.41
94 | A3G A18U A21G A64U G70U | 0
95 | A3G A18U C23A U43C A45G U49A U69G | 0.15
96 | A3G A18U C59A | 0.47

Row | Variant | self-cleavage
97 | A3G A18U U26A G33A | 0.32
98 | A3G A18U U26C A35G C68A | 0.35
99 | A3G A18U U31C U43C G55U A65G | 0.2
100 | A3G A18U U41C C50A A64G | 0.2
101 | A3G A18U U67G U69C | 0.25
102 | A3G A18U U76A | 0.09
103 | A3G A18U U80C | 0.78
104 | A3G A20G A21G | 0.69
105 | A3G A20G A28U A35G A45U U51C U67C | 0.6
106 | A3G A20G A28U A75U U78A | 0.74
107 | A3G A20G A35G A45U U48C U58C U80A | 0.25
108 | A3G A20G A45G U58C U60C G63C U67C | 0.47
109 | A3G A20G C39A | 0.1
110 | A3G A20G C40U U72A U80C | 1.01
111 | A3G A20G G30C G53U U74A A75U | 0.09
112 | A3G A20G G30U U31C G52A A64G | 0.18
113 | A3G A20G U31C C32U C37U U58A U60C | 0.1
114 | A3G A20G U31G | 0.85
115 | A3G A20G U54A U66G | 0.13
116 | A3G A20G U72C U78C | 0.92
117 | A3G A20U A35G | 0.88
118 | A3G A20U C38G | 0.08
119 | A3G A20U C38U U80C | 0.18
120 | A3G A20U U31C A56U U66C | 0.12

Row | Variant | self-cleavage
121 | A3G A20U U31C G36A U43A U51A A65U | 0.18
122 | A3G A20U U72C | 0.39
123 | A3G A21G A28G A35G C62U | 0.17
124 | A3G A21G A35G U54G A65G U67C | 0.32
125 | A3G A21G A35U U60A U72C | 0.47
126 | A3G A21G A45U U54C | 0.08
127 | A3G A21G G22C U26C A28U C34G | 0.11
128 | A3G A21G U31C A64G U80C | 0.15
129 | A3G A21G U31C G33A A45U U51G G52U | 0.07
130 | A3G A21G U49C | 0.4
131 | A3G A21G U49C U67C | 0.36
132 | A3G A21G U54A U80A | 0.83
133 | A3G A21G U66G U78A U80C | 0.3
134 | A3G A21U A75U | 0.44
135 | A3G A21U C39A A64C A65G U67A U69C | 0.05
136 | A3G A28C U31A G52A | 0.41
137 | A3G A28C U31C A57G U60C U80C | 0.12
138 | A3G A28G A35G | 1.2
139 | A3G A28G A35U U76A U78C | 0.37
140 | A3G A28G A47C U51A | 0.24
141 | A3G A28G A47G A64G U80A | 0.77
142 | A3G A28G A47G U48C A77U | 0.58
143 | A3G A28G A56G | 0.51
144 | A3G A28G C34U A47G U74C U76G | 0.07

Row | Variant | self-cleavage
145 | A3G A28G C62G | 0.15
146 | A3G A28G G30A U41A G73U U78C | 0.09
147 | A3G A28G U41C | 0.77
148 | A3G A28G U43A U72C U80C | 0.85
149 | A3G A28G U48C U54C G55A A64G U76C | 0.3
150 | A3G A28U A64C | 0.44
151 | A3G A28U U72A | 0.82
152 | A3G A35C C50G U51C U67A | 0.13
153 | A3G A35C U74C | 1.19
154 | A3G A35G A45U A47G U66C | 0.43
155 | A3G A35G A56U U67C C79G U80C | 0.86
156 | A3G A35G A64G A75U U78C | 1.25
157 | A3G A35G G53A U60C U69C | 0.87
158 | A3G A35G U41C U58C U60C | 0.35
159 | A3G A35G U41C U60C U78C | 1.16
160 | A3G A35G U51C | 1.27
161 | A3G A35G U58C A64G U66C | 0.68
162 | A3G A35U A45G U48C | 0.07
163 | A3G A35U A45U | 0.32
164 | A3G A35U A47G A57U A64U | 0.12
165 | A3G A35U A56C | 0.46
166 | A3G A35U A65G | 0.36
167 | A3G A35U A75C | 0.57
